Experimental data: US9266952B2, “Antibodies against ROR1 and uses thereof” (KANCERA AB, priority 2010, dated 2016)

Key:
primary CLL cells = assay: Primary CLL cells transferred i.p. and i.v. to NOD.SCID mice; type: in vivo; details: 10 mg/kg i.p. day 1 and 4 after transfer
Description: PBMCs were isolated from peripheral blood of a one CLL patient using the Ficoll Hypaque technique. […] In comparison, only 1.1% were T cells.
Thereafter, 150×10^6 cells was injected i.p and i.v into NOD.SCID mice. The mice were treated i.p with 10 mg/kg of the ROR1 specific mAb 009-G03, or irrelevant negative control at day 1, and 4 after transfer. Mice were sacrificed day 7 and intra-peritoneal cells were collected using intra-peritoneal lavage of 8 ml PBS. Cells recovered from the peritoneum were stained for anti human CD45, anti CD3 (staining cells of human origin and human T cells respectively), anti CD19 and anti CD5 (staining CLL cells) (all antibodies from BD).

[1] = tested on: primary patient CLL cells; assay: Primary patient CLL cells i.v. in irradiated NOD.SCID mice, spleen; type: in vivo; details: 10 mg/kg i.p. from day 5-7 after transfer, sacrificed 3-7 days later, versus isotype control
Description: Primary patient CLL cells are intravenously injected into immuno-deficient NOD. SCID mice. The CLL cells home to the spleen and there form proliferating clusters, very similar to human disease. After allowing to settle in the spleen for 5-7 days, the mice were treated with 10 mg/kg anti-ROR1 antibodies every third day and terminated after (A) 7 days, n=7 mice/group; (B) 7 days, n=9-10 mice/group; (C) 4 days, n=8 mice/group; (D) 3 days, n=5 mice/group. At termination the number of CLL cells is quantified in spleen using FACS staining of human CD45, CD19 and CD20. Each figure represents cells from individual CLL patients.
NOD.SCID mice received whole-body irradiation of 1 Gy 1 day prior to injection of primary patient cells.
PBMCs were isolated from peripheral blood of four CLL patients using the Ficoll Hypaque technique. Thereafter, 100×10^6 cells was injected i.v into irradiated NOD.SCID mice. The mice were treated i.p with 10 mg/kg of the ROR1 specific mAb 009-G03, or irrelevant negative control mAb at day 5-7 after transfer of cells to mice and sacrificed 3-7 days later. […]
Spleens were dissected out, minced, and lysed for red blood cells. The cell suspension were stained with fluorochrome conjugated mAb's recognizing human CD45, CD19 or CD20 and CLL cells were quantified as being either CD45^+CD19^+ or CD45^+CD20^+. […]

B1: 009-G03: ROR1 specific mAb, VH SEQ ID NO: 21, VL SEQ ID NO: 22 (FIG. 12) (antibody, listed as Mus musculus, V domains shown)
VH: EVQLLESGGGLVQPGGSLRLSCAASGFTFSDYYMSWIRQAPGKGLEWVSAISGSGGSTYYADSVKGRFTISRDNSKNTLYLQMNSLRAEDTAVYYCAKEDWEGASFDYWGQGTLVTVSS
VL: QSVLTQPPSASGTPGQRVTISCSGSSSNIGINTVNWYQQLPGTAPKLLIYDNNKRPSGVPDRFSGSKSGTSASLAISGLRSEDEADYYCATWDDSLSGWVFGGGTKLTVLG
Primary CLL cells; collected day 7
  number of CLL cells in splenic tissue: very strong tendency to reduced numbers
Primary CLL cells; collected day 7, versus isotype control
  number of CLL cells in the peritoneal fluid: significantly reduces the number of CLL cells in the peritoneal fluid; also recorded: significantly reduces the number of grafted CLL cells
[1]
  number of grafted CLL cells in the spleen: significantly reduces the number of grafted CLL cells in the spleen

Entries after “also recorded” stand apart in the source; their conditions may differ.
